Results taken from publication PMC6212790.
This is one part of the list. At the low end of the ranking the order means little.

The sequences below were run against T1, GST-Rok (full length) (UniProt O34857) (assay: protein binding microarray). Details: Rok is a gene silencer of Bacillus subtilis; high values mean tight binding; most listed sequences are background and not binding sites; double strand, one strand shown.
T1 sequence: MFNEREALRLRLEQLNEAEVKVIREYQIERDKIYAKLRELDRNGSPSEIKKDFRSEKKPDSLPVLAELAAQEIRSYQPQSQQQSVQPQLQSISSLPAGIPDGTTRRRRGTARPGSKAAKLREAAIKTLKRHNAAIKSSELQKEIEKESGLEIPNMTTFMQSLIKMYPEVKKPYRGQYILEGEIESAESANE
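Further: rank score from −0.5 (least bound) to 0.5 (best bound).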

| Sequence | binding signal [E-score] |
| --- | --- |
| CTGAGAGC | -0.268 |
| GGGCTACC | -0.132 |
| GGCGAAAC | -0.131 |
| ATGTGCCG | 0.0643 |
| CCCGGCCG | -0.162 |
| ACGGTTCA | -0.0413 |
| ACGCCTTA | 0.0389 |
| CCTCGAGC | -0.104 |
| ACTAAGTG | 0.0179 |
| ATGACAGC | 0.00198 |
| CGGTGACC | -0.284 |
| CCGGAGTC | -0.322 |
| ATACTGCA | 0.298 |
| TACACGTA | 0.195 |
| AGTCCAAC | -0.0561 |
| ACCTGCGC | -0.0461 |
| CTGTCTTC | -0.277 |
| AAAATCAG | 0.106 |
| AGAGGAGG | -0.296 |
| ATACACAG | 0.0825 |
| GCCATATA | 0.18 |
| ATGCTTTG | 0.0578 |
| CGACTCAA | 0.0945 |
| GGCATACC | 0.045 |
| CGGTCGTA | 0.216 |

| Sequence | binding signal [E-score] |
| --- | --- |
| TACCCTGA | -0.052 |
| AATACAAT | 0.24 |
| GGTACCCA | -0.109 |
| AAAGAATA | 0.138 |
| GTGGCGAA | 0.00892 |
| ATCCGCAC | -0.145 |
| AAATTAAG | 0.27 |
| CATCGCGC | -0.0288 |
| CATGACTC | -0.00233 |
| ATTCGGAG | 0.0824 |
| CAATATGC | 0.0853 |
| GGATTAAC | -0.112 |
| CGCGGTAC | -0.199 |
| TTATGCAA | 0.154 |
| TACTGCGA | -0.0297 |
| GAGGTAAC | -0.00277 |
| ACGGGGAC | -0.339 |
| AGCTGCAC | 0.104 |
| GCTATAAC | 0.205 |
| CGAGATCG | -0.00147 |
| CCTTCGTC | -0.165 |
| GATATCAC | 0.19 |
| TGAGAAAA | 0.251 |
| AAGAAAGC | -0.0725 |
| CCGCTACC | -0.0157 |

| Sequence | binding signal [E-score] |
| --- | --- |
| ATCCAGCG | -0.0768 |
| ACACGGGT | -0.101 |
| AGGATGAC | -0.0753 |
| CGGGAAAC | -0.141 |
| ACAAATCA | 0.104 |
| CTTTCATA | 0.192 |
| CTTTGGCC | -0.183 |
| CGATCTGC | 0.0408 |
| ATGTGCAA | -0.0284 |
| CTATGCTA | 0.169 |
| GCAAAAGC | -0.134 |
| GGTTCATA | 0.0529 |
| CAGAGATC | -0.124 |
| TGCGCGAA | -0.0702 |
| AGGAGAAG | -0.164 |
| CAGTTACG | 0.0613 |
| CGACGCTA | 0.166 |
| CATAACCG | -0.0854 |
| GCTTGGAC | -0.247 |
| CTCTAGCC | -0.221 |
| CGTGCTTA | 0.135 |
| CTGCCCCA | -0.322 |
| ATCCCTGC | -0.264 |
| AAGGACAA | -0.0561 |
| AACTTCGA | -0.0299 |

| Sequence | binding signal [E-score] |
| --- | --- |
| ATTACTAC | 0.355 |
| ATCTCAGC | -0.0883 |
| AGTGTAAG | 0.113 |
| ACGATGTC | 0.0937 |
| ACATCCGA | -0.0189 |
| TGGCAACA | -0.312 |
| ACTATTTA | 0.303 |
| ACTATGCT | 0.00675 |
| CCTGCCGA | -0.246 |
| ATTGTGTC | -0.195 |
| TACAGATA | 0.208 |
| CATGACGC | 0.0226 |
| CGAGAAGC | -0.155 |
| CAGACCGC | -0.277 |
| TATCTTGA | 0.085 |
| AGTCGCTG | -0.0206 |
| CAGCTGCA | -0.00124 |
| AAGGCGAA | -0.137 |
| ACCACACC | -0.000947 |
| CCCGTGTC | -0.333 |
| CCCCAGTC | -0.341 |
| GAAAATCC | 0.164 |
| CATATTGA | 0.11 |
| ATGCATGA | -0.0917 |
| ACACCGCG | 0.0209 |

| Sequence | binding signal [E-score] |
| --- | --- |
| CTCCACGC | -0.113 |
| CCGGAAAC | -0.213 |
| CGGAGTCC | -0.277 |
| ACGTTGCC | 0.0165 |
| AGATACGA | 0.213 |
| AGCCCGTC | -0.195 |
| ATTATGAG | 0.0335 |
| GATCTGCC | -0.115 |
| ACAAGGCT | -0.236 |
| CCGTGACC | -0.161 |
| GTTTTTGA | 0.0236 |
| AATCGGGC | -0.367 |
| CACCCGCG | -0.334 |
| TCTAAAAA | -0.0064 |
| AGGAAACG | -0.0572 |
| ATCCCATG | -0.144 |
| ACTTCGAT | 0.151 |
| AAACGTGG | -0.243 |
| CCCATCGC | -0.183 |
| ACATGCCT | -0.0543 |
| AAGTCCGA | -0.308 |
| AGTGGGTG | 0.0012 |
| TTGTGAAA | 0.0364 |
| CGGAGGCA | -0.189 |
| TGCAAACA | -0.0902 |

| Sequence | binding signal [E-score] |
| --- | --- |
| AAATCTAG | 0.35 |
| ATCAAATC | -0.055 |
| GAACGTGA | 0.026 |
| GCCATGCC | -0.26 |
| GCCGGACC | -0.343 |
| AGGCAGAG | -0.0172 |
| ACATCAAC | 0.0258 |
| AGACAGTG | -0.334 |
| ACCGCCCC | -0.303 |
| CGGCCTTC | -0.34 |
| TATCACCA | 0.136 |
| ACTGTGGG | -0.191 |
| CAAAGTCA | -0.0714 |
| AATGAACC | -0.0458 |
| GTCTTTTA | 0.0851 |
| AACAGGAT | 0.0137 |
| ATACAGGA | 0.199 |
| GCAGAACA | -0.0162 |
| AGCTGGAA | 0.0247 |
| TTCTCAAA | 0.0849 |
| CACTAAAC | -0.0428 |
| ACCACTTC | 0.0646 |
| CCTCTTGC | -0.214 |
| CAGGCTTC | -0.374 |
| ATATTCTC | 0.277 |

| Sequence | binding signal [E-score] |
| --- | --- |
| AGGCCAAA | -0.303 |
| CCGATCTA | 0.24 |
| ATAACAGG | -0.101 |
| CCGATCTC | 0.0583 |
| ACTCCATA | 0.119 |
| AGGAAGGC | -0.32 |
| TTCGACAA | 0.0753 |
| TAGGCAGA | 0.0451 |
| TACAAAAA | 0.035 |
| CCTCGGCG | -0.381 |
| AATCCCGC | -0.125 |
| ATTACTTC | 0.256 |
| ACCCCACC | -0.346 |
| AATAAGCG | -0.0883 |
| AGGATACT | 0.0415 |
| ATGACGCC | -0.14 |
| ACACGACC | 0.097 |
| CCCTCCCG | -0.332 |
| ACTTAACT | 0.223 |
| CTTAGTGA | 0.0435 |
| CAAAGCGG | -0.168 |
| TGGAATAA | 0.159 |
